The target in test [1] is T1, GST-Sgo1 137–163 (S. cerevisiae).
T1 sequence: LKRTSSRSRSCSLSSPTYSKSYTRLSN
Description: pull-down; GST-Sgo1 proteins (100 ug) on glutathione magnetic beads, rotated with yeast lysate 2 h at 4°C; eluates immunoblotted with anti-FLAG (Ycg1), anti-HA (Smc2), anti-MYC (Rts1); only the target purified.

The target in test [2] is T2, GST-Sgo1 101–200 (S. cerevisiae) (UniProt Q08490).
T2 sequence: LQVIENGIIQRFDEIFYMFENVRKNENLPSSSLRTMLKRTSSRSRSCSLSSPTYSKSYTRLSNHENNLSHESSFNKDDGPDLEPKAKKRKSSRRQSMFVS
The description is as above.

Test [3] has as its target T3, GST-Sgo1 N51I (S. cerevisiae) (UniProt Q08490).
T3 sequence: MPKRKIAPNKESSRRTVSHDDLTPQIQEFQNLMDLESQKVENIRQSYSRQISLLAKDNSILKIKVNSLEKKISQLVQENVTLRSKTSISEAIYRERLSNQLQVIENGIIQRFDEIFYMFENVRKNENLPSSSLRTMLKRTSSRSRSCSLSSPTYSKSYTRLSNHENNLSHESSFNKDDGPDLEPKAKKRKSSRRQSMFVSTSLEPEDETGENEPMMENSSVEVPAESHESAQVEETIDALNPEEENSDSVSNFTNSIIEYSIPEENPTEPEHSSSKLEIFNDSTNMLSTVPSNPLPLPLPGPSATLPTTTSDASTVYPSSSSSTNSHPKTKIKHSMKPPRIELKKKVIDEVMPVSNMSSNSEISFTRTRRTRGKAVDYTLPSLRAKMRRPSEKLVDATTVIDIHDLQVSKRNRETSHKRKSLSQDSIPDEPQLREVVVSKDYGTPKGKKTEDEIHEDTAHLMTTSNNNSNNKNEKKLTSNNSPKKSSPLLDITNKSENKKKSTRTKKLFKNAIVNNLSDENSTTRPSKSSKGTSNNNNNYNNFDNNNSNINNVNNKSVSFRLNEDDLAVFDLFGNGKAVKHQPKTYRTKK
The description is as above.

For test [4], the target named is T4, GST-Sgo1wt (full length Sgo1-GST) (S. cerevisiae) (UniProt Q08490).
T4 sequence: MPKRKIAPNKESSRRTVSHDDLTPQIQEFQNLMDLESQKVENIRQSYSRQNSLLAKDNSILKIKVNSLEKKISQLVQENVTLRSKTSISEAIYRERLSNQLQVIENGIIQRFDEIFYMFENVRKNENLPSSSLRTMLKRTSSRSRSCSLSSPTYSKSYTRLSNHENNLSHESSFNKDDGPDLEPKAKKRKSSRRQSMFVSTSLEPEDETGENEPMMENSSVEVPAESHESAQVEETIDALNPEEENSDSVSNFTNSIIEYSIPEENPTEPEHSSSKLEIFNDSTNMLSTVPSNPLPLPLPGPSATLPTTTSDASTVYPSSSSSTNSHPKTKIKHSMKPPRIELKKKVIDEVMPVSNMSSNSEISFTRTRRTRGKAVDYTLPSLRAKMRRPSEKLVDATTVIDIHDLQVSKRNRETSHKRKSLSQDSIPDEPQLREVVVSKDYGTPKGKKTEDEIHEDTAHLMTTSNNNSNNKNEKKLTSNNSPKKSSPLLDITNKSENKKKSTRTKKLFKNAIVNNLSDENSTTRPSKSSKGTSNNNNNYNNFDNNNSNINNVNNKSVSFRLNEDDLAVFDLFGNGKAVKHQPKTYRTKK
Described as above.

Test [5] has as its target T5, GST-Sgo1 1–163 (S. cerevisiae) (UniProt Q08490).
T5 sequence: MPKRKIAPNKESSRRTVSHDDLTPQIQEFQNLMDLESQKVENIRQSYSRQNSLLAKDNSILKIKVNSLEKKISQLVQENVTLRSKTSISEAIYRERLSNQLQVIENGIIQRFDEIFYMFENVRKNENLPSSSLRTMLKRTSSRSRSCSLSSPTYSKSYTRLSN
The test is described as above.

A further test concerns the target T6, Brn1-GFP (S. cerevisiae) (UniProt P38170).
T6 sequence: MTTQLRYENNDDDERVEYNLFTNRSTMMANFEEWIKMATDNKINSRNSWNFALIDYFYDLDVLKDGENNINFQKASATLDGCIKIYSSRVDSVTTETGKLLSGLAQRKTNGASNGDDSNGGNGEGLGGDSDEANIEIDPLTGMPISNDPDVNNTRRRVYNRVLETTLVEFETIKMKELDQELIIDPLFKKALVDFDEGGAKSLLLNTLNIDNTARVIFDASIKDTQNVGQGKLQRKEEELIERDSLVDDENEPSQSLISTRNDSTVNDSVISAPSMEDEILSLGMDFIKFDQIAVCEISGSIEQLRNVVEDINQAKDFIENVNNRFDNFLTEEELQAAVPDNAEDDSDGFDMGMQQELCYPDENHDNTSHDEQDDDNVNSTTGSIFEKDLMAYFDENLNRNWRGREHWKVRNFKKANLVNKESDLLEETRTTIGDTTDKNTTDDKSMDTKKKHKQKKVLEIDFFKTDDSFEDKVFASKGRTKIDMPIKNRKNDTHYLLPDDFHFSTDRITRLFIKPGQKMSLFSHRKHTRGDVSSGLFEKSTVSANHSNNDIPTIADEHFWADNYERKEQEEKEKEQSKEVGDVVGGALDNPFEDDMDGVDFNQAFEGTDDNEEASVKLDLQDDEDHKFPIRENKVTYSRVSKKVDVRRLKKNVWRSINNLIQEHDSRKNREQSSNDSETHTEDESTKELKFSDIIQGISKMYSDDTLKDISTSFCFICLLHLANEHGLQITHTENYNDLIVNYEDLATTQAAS
In words: co-IP; GFP-Trap agarose beads, yeast lysates in native lysis buffer (20 mM HEPES pH 7.5, 0.5% Triton X-100, 200 mM NaCl), 2 hours at 4°C; Smc2-GFP or Brn1-GFP pulled down, Sgo1-TAP detected with PAP.

In a further test the target is T7, Smc2-GFP (S. cerevisiae) (UniProt P38989).
T7 sequence: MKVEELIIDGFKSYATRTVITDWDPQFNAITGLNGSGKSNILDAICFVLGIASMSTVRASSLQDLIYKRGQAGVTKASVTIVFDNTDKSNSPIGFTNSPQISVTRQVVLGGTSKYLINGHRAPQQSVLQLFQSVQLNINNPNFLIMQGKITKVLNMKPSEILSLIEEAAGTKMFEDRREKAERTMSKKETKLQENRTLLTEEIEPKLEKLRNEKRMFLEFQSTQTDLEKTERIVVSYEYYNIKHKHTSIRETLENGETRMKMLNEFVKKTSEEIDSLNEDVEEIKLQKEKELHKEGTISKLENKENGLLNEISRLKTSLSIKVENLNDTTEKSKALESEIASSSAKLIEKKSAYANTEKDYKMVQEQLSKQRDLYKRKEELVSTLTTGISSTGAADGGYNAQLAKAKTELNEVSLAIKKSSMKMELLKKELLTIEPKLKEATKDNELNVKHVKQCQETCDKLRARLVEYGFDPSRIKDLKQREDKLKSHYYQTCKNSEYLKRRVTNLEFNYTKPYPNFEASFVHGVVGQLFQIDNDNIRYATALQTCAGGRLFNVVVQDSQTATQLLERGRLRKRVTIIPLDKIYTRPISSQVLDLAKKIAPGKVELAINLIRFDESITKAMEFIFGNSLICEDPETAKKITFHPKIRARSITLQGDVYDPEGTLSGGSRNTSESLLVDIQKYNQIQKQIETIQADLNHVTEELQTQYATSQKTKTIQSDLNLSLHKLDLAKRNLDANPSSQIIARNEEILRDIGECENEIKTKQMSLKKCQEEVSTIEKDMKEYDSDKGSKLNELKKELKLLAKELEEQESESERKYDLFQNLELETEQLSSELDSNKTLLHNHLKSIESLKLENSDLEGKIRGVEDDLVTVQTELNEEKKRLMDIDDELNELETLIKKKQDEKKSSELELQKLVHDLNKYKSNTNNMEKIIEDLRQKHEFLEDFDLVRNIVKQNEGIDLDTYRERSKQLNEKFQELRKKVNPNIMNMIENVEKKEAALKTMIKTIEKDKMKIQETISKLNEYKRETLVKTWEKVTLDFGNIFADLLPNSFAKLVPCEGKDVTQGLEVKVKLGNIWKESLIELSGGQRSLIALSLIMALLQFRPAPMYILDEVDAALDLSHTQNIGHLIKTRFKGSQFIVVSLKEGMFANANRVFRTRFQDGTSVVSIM
The test is described as above.

The record followed here is article PMC7454948.

No constants are given. Whether binding was seen depends on the method and setting. Binding seen in cells or lysates may run through a third protein. Some results given as binding are weak or reduced against the parent protein; the word gives no strength. Sequences can lack the tags named with a protein.

B1: Ycg1-3FLAG (protein, UniProt Q06680 1-1035)
chain: MQDPDGIDINTKIFNSVAEVFQKAQGSYAGHRKHIAVLKKIQSKAVEQGYEDAFNFWFDKLVTKILPLKKNEIIGDRIVKLVAAFIASLERELILAKKQNYKLTNDEEGIFSRFVDQFIRHVLRGVESPDKNVRFRVLQLLAVIMDNIGEIDESLFNLLILSLNKRIYDREPTVRIQAVFCLTKFQDEEQTEHLTELSDNEENFEATRTLVASIQNDPSAEVRRAAMLNLINDNNTRPYILERARDVNIVNRRLVYSRILKSMGRKCFDDIEPHIFDQLIEWGLEDRELSVRNACKRLIAHDWLNALDGDLIELLEKLDVSRSSVCVKAIEALFQSRPDILSKIKFPESIWKDFTVEIAFLFRAIYLYCLDNNITEMLEENFPEASKLSEHLNHYILLRYHHNDISNDSQSHFDYNTLEFIIEQLSIAAERYDYSDEVGRRSMLTVVRNMLALTTLSEPLIKIGIRVMKSLSINEKDFVTMAIEIINDIRDDDIEKQEQEEKIKSKKINRRNETSVDEEDENGTHNDEVNEDEEDDNISSFHSAVENLVQGNGNVSESDIINNLPPEKEASSATIVLCLTRSSYMLELVNTPLTENILIASLMDTLITPAVRNTAPNIRELGVKNLGLCCLLDVKLAIDNMYILGMCVSKGNASLKYIALQVIVDIFSVHGNTVVDGEGKVDSISLHKIFYKVLKNNGLPECQVIAAEGLCKLFLADVFTDDDLFETLVLSYFSPINSSNEALVQAFAFCIPVYCFSHPAHQQRMSRTAADILLRLCVLWDDLQSSVIPEVDREAMLKPNIIFQQLLFWTDPRNLVNQTGSTKKDTVQLTFLIDVLKIYAQIEKKEIKKMIITNINAIFLSSEQDYSTLKELLEYSDDIAENDNLDNVSKNALDKLRNNLNSLIEEINERSETQTKDENNTANDQYSSILGNSFNKSSNDTIEHAADITDGNNTELTKTTVNISAVDNTTEQSNSRKRTRSEAEQIDTSKNLENMSIQDTSTVAKNVSFVLPDEKSDAMSIDEEDKDSESFSEVC
On to B1, for which the binding entry in test [1] is listed as “no binding”; in test [2] it was “no binding”; in test [3], “binds”; in test [4] it was “binds”; in test [5] it was “binds”.

B2: Sgo1-13E (TAP-tagged, in yeast) (protein, UniProt Q08490 1-590)
chain: MPKRKIAPNKESSRRTVSHDDLTPQIQEFQNLMDLESQKVENIRQSYSRQNSLLAKDNSILKIKVNSLEKKISQLVQENVTLRSKTSISEAIYRERLSNQLQVIENGIIQRFDEIFYMFENVRKNENLPSSSLRTMLKREEERERECELEEPEYEKEYERLENHENNLSHESSFNKDDGPDLEPKAKKRKSSRRQSMFVSTSLEPEDETGENEPMMENSSVEVPAESHESAQVEETIDALNPEEENSDSVSNFTNSIIEYSIPEENPTEPEHSSSKLEIFNDSTNMLSTVPSNPLPLPLPGPSATLPTTTSDASTVYPSSSSSTNSHPKTKIKHSMKPPRIELKKKVIDEVMPVSNMSSNSEISFTRTRRTRGKAVDYTLPSLRAKMRRPSEKLVDATTVIDIHDLQVSKRNRETSHKRKSLSQDSIPDEPQLREVVVSKDYGTPKGKKTEDEIHEDTAHLMTTSNNNSNNKNEKKLTSNNSPKKSSPLLDITNKSENKKKSTRTKKLFKNAIVNNLSDENSTTRPSKSSKGTSNNNNNYNNFDNNNSNINNVNNKSVSFRLNEDDLAVFDLFGNGKAVKHQPKTYRTKK
For the molecule B2, the binding result with Brn1-GFP (S. cerevisiae) and in the test with Smc2-GFP (S. cerevisiae) was “no binding” throughout.
